# Test results reported in the supplement of paper PMC10441789.
# The list shows a part of the results. Antibody binding of pooled human sera (four to six donors per pool; dilution not stated) to peptides of the Trypanosoma cruzi antigen TSSA on microarrays. Quantile-normalised fluorescence in arbitrary units, mean of duplicate arrays; higher = more binding. No active / inactive call. The uninfected pools are read here as the healthy donors of the same country. The strongest signals lie near the top of the scale (about 60,000).
# Tests used:
# Assay in all cases: antibody binding signal (normalised fluorescence) (arbitrary fluorescence units); higher = stronger serum antibody binding to peptide
# [1] = test system: pooled sera of chronic Chagas disease patients, Argentina
# Description: (§1)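 Microarray of 15-residue peptides over residues 30-55 of Trypanosoma cruzi TSSAII, each with 1 to 10 substitutions at naturally variable positions, probed with one serum pool per country.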
# [2] = test system: pooled sera of chronic Chagas disease patients, Bolivia
# Description: as §1
# [3] = test system: pooled sera of chronic Chagas disease patients, Brazil
# Description: as §1
# [4] = test system: pooled sera of chronic Chagas disease patients, Colombia
# Description: as §1
# [5] = test system: pooled sera of chronic Chagas disease patients, Mexico
# Description: as §1
# [6] = test system: pooled sera of chronic Chagas disease patients, USA
# Description: as §1
# [7] = test system: pooled sera of uninfected people, Argentina
# Description: as §1
# [8] = test system: pooled sera of uninfected people, Bolivia
# Description: as §1
# [9] = test system: pooled sera of uninfected people, Brazil
# Description: as §1
# [10] = test system: pooled sera of uninfected people, Mexico
# Description: as §1
# [11] = test system: pooled sera of uninfected people, USA
# Description: as §1
Sequence,antibody binding signal [1],antibody binding signal [2],antibody binding signal [3],antibody binding signal [4],antibody binding signal [5],antibody binding signal [6],antibody binding signal [7],antibody binding signal [8],antibody binding signal [9],antibody binding signal [10],antibody binding signal [11]
SGKDNKTAAGGAPSQ,586,249,968,6060,1070,2110,174,131,156,101,157
TEKKTATGETPSQPG,1520,2520,30300,486,412,8210,325,416,514,313,255
TDKKTATGGAPSQSG,1630,258,1250,2160,919,783,325,205,195,338,126
SSTPPSGTEKKPATG,42100,9580,45200,745,34500,9010,1390,1300,395,244,732
GKENKTATGGAPSPP,2850,610,8230,5830,4830,15700,533,122,99.9,172,151
KDNKAATGEAPSQPG,23800,23700,36400,207,232,22300,381,825,236,103,162
SGTEKKAAAGEAPSQ,1220,11400,9090,828,1200,11600,101,556,420,119,104
KDNKTATGEAPSQPG,17200,20800,41900,2270,302,22700,480,197,273,98.7,185
PSGTEKKAAAGGTPS,10600,966,3310,10000,7060,5910,480,281,1170,160,389
EKKAATGEAPSPPGA,20800,14600,30100,366,860,23600,854,769,138,272,914
GTDNKTATGETPSPP,594,1310,31200,204,252,7920,175,486,1030,172,358
SSTPPSGTEKKPAAG,46300,8160,46200,766,24900,12100,1390,1100,567,285,1050
PPSGKDNKTATGETP,1520,3160,2140,1140,8310,5520,365,479,241,112,188
TDNKPAAGGAPSPPG,1120,798,3650,1350,262,942,181,299,309,304,131
GKDKKPAAGETPSQP,476,892,24400,638,1020,1700,96.5,145,83,89.7,102
STPPSGTENKAAAGE,53400,43700,46600,257,6500,41600,3130,415,266,385,405
GKDKKPAAGGTPSQS,217,225,180,1240,519,453,115,83.1,515,122,90.8
TDKKAAAGGAPSPPG,1310,290,219,5720,593,992,222,146,226,153,141
PSGKDNKPAAGEAPS,4110,1260,18400,5160,4850,18200,861,1440,383,371,153
KENKAATGGAPSQSG,327,241,1770,237,302,1490,192,90.1,99,78.3,148
KDKKTATGETPSPSG,222,196,220,199,326,4840,214,117,84,115,923
GTENKTATGEAPSQP,29400,37100,42200,1350,2120,22700,177,274,222,163,89.5
GKDNKTATGGTPSQS,370,329,333,2280,905,815,335,125,131,171,154
PSGKENKTATGEAPS,16000,13800,16700,3250,4770,21900,6100,3240,291,575,212
ENKTATGGTPSQPGA,467,2430,1210,2040,451,1210,575,153,613,2070,212
TDNKPATGGAPSQSG,1790,18900,10100,325,440,2650,251,1060,433,403,173

Sequence,antibody binding signal [1],antibody binding signal [2],antibody binding signal [3],antibody binding signal [4],antibody binding signal [5],antibody binding signal [6],antibody binding signal [7],antibody binding signal [8],antibody binding signal [9],antibody binding signal [10],antibody binding signal [11]
TPPSGKDNKTAAGET,1440,2020,1850,1450,16200,2990,276,469,140,499,157
SGKDNKTATGGAPSP,1030,206,612,3030,1060,1760,303,124,126,83.8,162
SGTEKKTATGGTPSP,1930,923,1940,6490,1340,2230,298,417,392,176,151
PPSGKEKKAATGGAP,1800,323,1830,1930,3140,3440,401,373,96.2,89.4,176
DNKPATGETPSPPGA,31700,22500,32200,249,208,23000,134,388,417,1440,416
KDKKAAAGGTPSPSG,231,192,203,1670,287,1140,91.6,102,738,77.3,77.4
SGKENKPATGEAPSQ,46500,50400,49100,1210,3190,38300,9620,4950,349,788,207
EKKTAAGEAPSQPGA,5040,8480,35200,548,365,6500,315,1360,132,351,1060
NKPATGEAPSPPGAS,26400,44200,47000,447,202,40000,1240,1560,701,243,1360
TDKKTATGEAPSPPG,9300,20400,12700,214,297,18800,170,95.3,199,119,123
GKEKKTATGETPSPP,7360,1310,2320,5280,8330,8580,278,133,91.1,141,195
GKENKAATGGTPSQS,4910,1120,11100,9820,7480,17700,324,91,167,209,131
KDNKPATGEAPSQSG,46300,46000,52300,268,237,43000,1190,839,304,444,126
PPSGKDNKAAAGGTP,794,238,1110,1300,3140,2750,272,438,291,88,155
GKEKKPAAGEAPSPP,2570,370,4480,1790,3250,12600,123,93.9,94.3,80.9,282
GKDNKPATGEAPSQP,51900,49900,55500,2400,2550,42000,1140,944,301,335,146
KDKKPAAGETPSPPG,222,193,1160,125,145,595,112,152,112,79.2,223
TPPSGKENKTAAGGA,10100,722,3200,592,2080,2170,2550,911,240,211,321
GKEKKAATGGTPSPS,2750,297,416,2310,5180,3000,135,91.2,186,75.7,112
SGKDNKAATGGTPSQ,746,333,696,1310,1090,883,203,236,225,102,90.1
DKKAAAGGAPSQSGA,1000,277,636,3650,376,486,187,130,325,148,172
TENKAAAGETPSQPG,31500,3620,38300,281,201,3300,92,560,180,113,166
DKKTATGETPSQPGA,991,1810,31900,263,310,6910,217,773,301,532,215
SGTENKTAAGGTPSQ,28600,6020,13400,7140,944,4330,510,416,1060,2530,209
KKPATGEAPSPPGAS,21100,17700,40200,169,245,31900,930,890,171,88.7,594
